Data: paper PMC4304707
These are yes or no findings as the source states them, for the method shown. In cells and extracts the contact can be indirect. Some results given as binding are weak or reduced against the parent protein; the word gives no strength. For part of these data: Tags and fused reporters may be left off the sequences shown.

Amino acid sequences for entries named in this document (tags omitted).
UniProt Q9SUP6: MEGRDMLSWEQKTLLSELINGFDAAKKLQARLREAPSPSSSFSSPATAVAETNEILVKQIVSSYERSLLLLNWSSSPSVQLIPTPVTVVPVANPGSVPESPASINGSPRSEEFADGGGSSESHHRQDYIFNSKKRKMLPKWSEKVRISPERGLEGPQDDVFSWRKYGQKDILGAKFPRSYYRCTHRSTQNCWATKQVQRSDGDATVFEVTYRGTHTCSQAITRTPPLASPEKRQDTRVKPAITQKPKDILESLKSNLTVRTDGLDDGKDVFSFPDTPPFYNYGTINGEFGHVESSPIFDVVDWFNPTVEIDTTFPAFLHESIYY
UniProt Q9C5T4: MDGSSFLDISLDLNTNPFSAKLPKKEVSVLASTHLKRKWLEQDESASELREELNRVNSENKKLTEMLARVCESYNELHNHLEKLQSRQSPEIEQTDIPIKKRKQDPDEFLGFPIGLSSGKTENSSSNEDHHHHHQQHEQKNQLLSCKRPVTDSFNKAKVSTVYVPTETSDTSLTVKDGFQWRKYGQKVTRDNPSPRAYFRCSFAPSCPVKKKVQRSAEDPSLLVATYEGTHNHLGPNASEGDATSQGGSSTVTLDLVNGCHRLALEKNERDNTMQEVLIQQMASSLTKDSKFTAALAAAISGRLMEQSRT
UniProt Q9SK33: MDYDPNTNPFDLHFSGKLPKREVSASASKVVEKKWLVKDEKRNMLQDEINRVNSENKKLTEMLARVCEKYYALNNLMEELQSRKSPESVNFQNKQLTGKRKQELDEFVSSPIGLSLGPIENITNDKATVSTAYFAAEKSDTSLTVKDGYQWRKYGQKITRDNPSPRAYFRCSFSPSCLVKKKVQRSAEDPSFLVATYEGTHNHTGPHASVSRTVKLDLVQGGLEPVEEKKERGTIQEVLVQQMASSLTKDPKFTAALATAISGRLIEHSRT

What was measured:
Assay in all cases: split reporter; BiFC: cYFP and nYFP fusion constructs (20 μg each) co-transfected into Arabidopsis mesophyll protoplasts (PEG-calcium), 16–18 h in the dark at room temperature, confocal laser scanning microscopy; signal restricted to the nucleus
WRKY40 (Arabidopsis) = target: T1, WRKY40 (Arabidopsis) (UniProt Q9SAH7)
T1 sequence: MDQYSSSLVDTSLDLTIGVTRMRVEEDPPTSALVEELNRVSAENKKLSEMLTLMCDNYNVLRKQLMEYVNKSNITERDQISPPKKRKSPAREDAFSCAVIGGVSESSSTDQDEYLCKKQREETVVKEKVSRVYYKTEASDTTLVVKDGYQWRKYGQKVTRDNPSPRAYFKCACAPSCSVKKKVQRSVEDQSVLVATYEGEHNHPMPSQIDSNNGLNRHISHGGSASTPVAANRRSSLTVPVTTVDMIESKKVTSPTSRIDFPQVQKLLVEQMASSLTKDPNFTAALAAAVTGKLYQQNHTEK

ARF5 (Arabidopsis) = target: T2, ARF5 (Arabidopsis) (UniProt P93024)
T2 sequence: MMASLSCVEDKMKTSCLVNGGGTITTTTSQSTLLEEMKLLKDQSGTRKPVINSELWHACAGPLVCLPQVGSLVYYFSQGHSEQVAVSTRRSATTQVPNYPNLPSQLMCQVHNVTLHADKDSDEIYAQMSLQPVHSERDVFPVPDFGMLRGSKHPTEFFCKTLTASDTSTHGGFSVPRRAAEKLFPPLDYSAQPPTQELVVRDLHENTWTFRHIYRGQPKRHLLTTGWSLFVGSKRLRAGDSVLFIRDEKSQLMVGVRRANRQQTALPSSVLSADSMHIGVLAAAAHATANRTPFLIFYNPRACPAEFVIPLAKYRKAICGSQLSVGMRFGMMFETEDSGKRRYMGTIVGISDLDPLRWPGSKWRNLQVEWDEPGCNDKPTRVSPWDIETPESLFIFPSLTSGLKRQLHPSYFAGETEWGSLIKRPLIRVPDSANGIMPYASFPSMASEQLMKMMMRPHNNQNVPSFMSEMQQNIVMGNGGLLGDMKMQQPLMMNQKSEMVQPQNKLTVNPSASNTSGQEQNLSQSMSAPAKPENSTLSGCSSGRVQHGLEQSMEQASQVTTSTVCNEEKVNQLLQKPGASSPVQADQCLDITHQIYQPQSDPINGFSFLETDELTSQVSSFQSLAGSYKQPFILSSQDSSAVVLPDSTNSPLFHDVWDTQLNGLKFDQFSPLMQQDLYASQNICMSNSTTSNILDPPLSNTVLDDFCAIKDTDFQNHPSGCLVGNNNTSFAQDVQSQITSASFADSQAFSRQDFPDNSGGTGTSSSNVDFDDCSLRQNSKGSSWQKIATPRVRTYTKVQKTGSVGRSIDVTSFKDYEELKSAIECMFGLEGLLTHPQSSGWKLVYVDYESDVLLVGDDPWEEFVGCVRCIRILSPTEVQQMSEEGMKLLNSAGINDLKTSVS

[1] = target: T3, ARF5Δ722-cYFP (Arabidopsis) (UniProt P93024)
T3 sequence: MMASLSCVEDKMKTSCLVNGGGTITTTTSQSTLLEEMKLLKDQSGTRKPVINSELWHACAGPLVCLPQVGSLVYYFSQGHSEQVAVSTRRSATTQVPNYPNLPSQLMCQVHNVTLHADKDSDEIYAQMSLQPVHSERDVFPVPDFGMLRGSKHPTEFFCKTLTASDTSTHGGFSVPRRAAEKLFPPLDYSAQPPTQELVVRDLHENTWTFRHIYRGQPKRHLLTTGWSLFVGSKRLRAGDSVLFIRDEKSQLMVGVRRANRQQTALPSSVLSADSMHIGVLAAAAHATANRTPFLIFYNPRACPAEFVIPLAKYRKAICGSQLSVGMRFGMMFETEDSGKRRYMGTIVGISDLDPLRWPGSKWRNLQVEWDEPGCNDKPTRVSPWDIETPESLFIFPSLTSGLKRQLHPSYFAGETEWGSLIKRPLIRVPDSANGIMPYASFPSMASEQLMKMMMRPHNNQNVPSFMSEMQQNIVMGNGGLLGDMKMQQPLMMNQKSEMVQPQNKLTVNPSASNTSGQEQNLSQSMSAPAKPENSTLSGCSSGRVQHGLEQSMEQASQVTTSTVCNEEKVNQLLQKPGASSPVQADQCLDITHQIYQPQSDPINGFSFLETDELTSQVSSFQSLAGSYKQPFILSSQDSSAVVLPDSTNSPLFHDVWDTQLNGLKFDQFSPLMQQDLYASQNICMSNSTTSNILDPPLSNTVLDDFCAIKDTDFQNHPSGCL

ARF3-cYFP (Arabidopsis) = target: T4, ARF3-cYFP (Arabidopsis) (UniProt O23661)
T4 sequence: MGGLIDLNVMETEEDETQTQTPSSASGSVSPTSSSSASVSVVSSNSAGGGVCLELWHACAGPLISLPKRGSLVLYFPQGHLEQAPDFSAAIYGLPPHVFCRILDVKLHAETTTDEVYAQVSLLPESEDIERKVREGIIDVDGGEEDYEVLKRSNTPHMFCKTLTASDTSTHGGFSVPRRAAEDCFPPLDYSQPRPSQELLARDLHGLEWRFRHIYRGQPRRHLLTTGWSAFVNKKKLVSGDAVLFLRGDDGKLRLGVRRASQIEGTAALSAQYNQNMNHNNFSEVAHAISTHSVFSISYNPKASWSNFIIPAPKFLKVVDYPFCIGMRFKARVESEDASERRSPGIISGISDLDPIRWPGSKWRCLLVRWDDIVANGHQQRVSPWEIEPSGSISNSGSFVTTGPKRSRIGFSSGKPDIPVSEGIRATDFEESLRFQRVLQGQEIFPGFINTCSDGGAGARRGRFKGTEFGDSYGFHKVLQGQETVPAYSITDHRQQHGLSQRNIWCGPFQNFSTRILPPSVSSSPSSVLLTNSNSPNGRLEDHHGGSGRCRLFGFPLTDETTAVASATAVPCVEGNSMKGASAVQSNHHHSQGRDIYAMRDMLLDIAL

[2] = target: WRKY53-cYFP (Arabidopsis) (UniProt Q9SUP6)

| binding (WRKY40 (Arabidopsis)) | binding (ARF5 (Arabidopsis)) | binding [1] | binding (ARF3-cYFP (Arabidopsis)) | binding [2] | Substance |
| --- | --- | --- | --- | --- | --- |
| binds | binds | no binding | no binding |  | WRKY18-nYFP (from UniProt Q9C5T4 1-310) |
| binds | binds | no binding | no binding | no binding | WRKY60-nYFP (from UniProt Q9SK33 1-271) |
